In all, about 33,000 sequences were measured (“E-score (-0.5 to 0.5)”: median about -0.013, highest 2% from about 0.3 on). Some of the results follow.
Each sequence was assayed against T1, Msn1 (UniProt P22148) (assay: PBM E-score (8-mer binding enrichment) (E-score (-0.5 to 0.5)); higher = stronger / more preferred TF binding; most listed sequences are background and not binding sites). Details: protein concentration: 200 nM; construct: GST-full length.
T1 sequence: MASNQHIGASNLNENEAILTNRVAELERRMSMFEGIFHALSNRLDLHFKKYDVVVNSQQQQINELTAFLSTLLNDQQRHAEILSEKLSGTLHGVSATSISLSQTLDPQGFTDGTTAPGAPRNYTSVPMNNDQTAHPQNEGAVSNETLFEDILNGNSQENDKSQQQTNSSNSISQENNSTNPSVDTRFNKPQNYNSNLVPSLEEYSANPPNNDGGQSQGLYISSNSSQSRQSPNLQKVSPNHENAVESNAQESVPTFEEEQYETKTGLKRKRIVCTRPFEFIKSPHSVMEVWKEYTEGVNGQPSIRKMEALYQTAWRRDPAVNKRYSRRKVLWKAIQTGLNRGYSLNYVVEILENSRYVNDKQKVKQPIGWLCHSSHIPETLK
Procedure: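 Universal 'all 10-mer' protein binding microarrays (Agilent AMADID 015681) probed with GST-tagged S. cerevisiae TFs (full-length or DBD) made by in vitro transcription/translation (PURExpress), about 100-200 nM. Bound TF was detected with fluorescent anti-GST. Each ungapped 8-mer (which stands for itself and its reverse complement) is scored by the PBM enrichment score (E-score), a modified Wilcoxon-Mann-Whitney statistic from -0.5 to +0.5, computed with the Universal PBM Analysis Suite. Scale: above 0.35 generally sequence-specific binding.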

Sequence | PBM E-score
GCTATAAA | -0.0244
CTTAGCAC | -0.0653
GACGAAAA | 0.291
AGCCGGCT | -0.3
CTTAGCCC | -0.0375
AGGATCTG | -0.0607
AGTTAGTA | 0.0589
ACTGCTAC | -0.11
AGCATCGG | -0.0359
CGTTAGCA | 0.0467
GGTTTCCA | -0.00163
ACGGGCGG | -0.141
ATTTCCTA | 0.165
TCAGCAAA | 0.0996
ATCCGTCA | 0.00708
AAGTTTCT | 0.0733
TCGACTCA | 0.0627
CAAGCCGG | 0.0981
ACGCCTAT | -0.0241
AAGCTTTC | 0.0444
GAGAGCGC | -0.358
CGCGACCG | 0.0606
AGTTCGGG | 0.259
GCATCGTA | -0.157
GCAGTCTA | -0.142

Sequence | PBM E-score
GAAATTAC | 0.109
GCAGCTAA | -0.194
CGCAGTAA | -0.0108
ATCTGCAG | 0.0132
GCGAACGC | -0.139
CAGCTTGC | -0.107
CTAGCAGC | -0.0169
CACTGTTC | -0.107
TAAGTTCA | -0.00232
ACTAGTTC | 0.0576
ACCCCTTG | -0.23
CCAGATTA | 0.00634
ATGTTACA | 0.122
ATATACAG | 0.234
AAAAGTAC | 0.366
GGTTAGTA | -0.0399
GTACCTCA | 0.177
CTAGGCAC | 0.0117
CTCGCGAA | -0.0296
AAAGGAAG | -0.069
GCCTGATA | -0.148
AGCATCAT | 0.0126
ACATACCG | 0.114
AACTCGCT | 0.0996
TACGATAA | 0.0522

Sequence | PBM E-score
CAAATTTC | 0.184
AGCTCGCA | -0.0442
GACCACTC | -0.128
GAGAGCCC | -0.469
ACAGTCTG | -0.0157
GAGCCAGA | 0.0645
CGGATAGC | 0.0301
TCGCCCGA | 0.00922
GATTTGAA | 0.185
CCGTCAAA | 0.0733
TACTCAGA | 0.105
ACATCGAT | 0.189
ATTAGAGC | 0.0959
ACTAAGGA | 0.0315
GTGGAGGA | -0.168
CTGACTGC | -0.211
GGAAATTA | 0.183
AGCTGGTA | -0.0342
CTCAGTCA | -0.173
GACACGCC | 0.324
AATCACCA | 0.0292
ACAGGCCC | -0.192
AACTAAAT | 0.0655
CCACTTTC | -0.0357
CGAATGGC | 0.041

Sequence | PBM E-score
TCGGCCAA | -0.00534
CAGGGACG | 0.165
TCGTGCCA | -0.106
TAGCTCCA | -0.0301
AGTGGCGG | -0.173
CGAACCGA | 0.113
CAGCCCAA | -0.0322
CCCACTGC | -0.155
GGCCACGA | -0.0736
GTAACGAC | 0.0121
TACCAAAA | -0.00284
CATTCTTC | -0.0454
AGATACGA | 0.109
ATGGGCTG | -0.146
CACTAGCA | -0.0794
CTCTTAGA | 0.0286
AGAAAAAC | -0.0225
TCGTCACA | -0.0592
ATTACGAG | 0.0183
CCGGTCCC | -0.191
AGCGTGGG | -0.127
AATTAGCC | -0.0127
AGATTATG | -0.00564
CCATCCCC | -0.313
ACATCATA | 0.221

Sequence | PBM E-score
CACATGCG | 0.095
CCGTGAAA | 0.228
CTTTACTA | 0.2
CGGGATCC | -0.00623
ACGGTTTG | -0.0669
AACTTGCA | -0.11
GCCCCTGA | -0.292
GTGAGCCA | 0.00843
CAATGGAA | 0.059
ATAAATAA | 0.291
ATAAGTAA | 0.149
CCTCTTCA | -0.0628
CACTACGA | 0.137
GAAGCTGA | -0.0495
GGATTAGA | -0.0602
AGATAACG | 0.0416
AGTTTTTG | 0.147
GATTTACA | 0.144
GCACCGAC | 0.00089
CACTGTAC | -0.124
CATAATGC | -0.0764
ACGTTGCT | -0.0851
GGCAGGAC | 0.263
GAACGACA | 0.203
GCCTCCCA | -0.232

Sequence | PBM E-score
CGTTACCA | -0.0457
CTTATTTC | 0.246
ATTACTTA | -0.0141
CCGTACCA | 0.145
CCCCGACG | -0.0676
CGGTGACA | 0.215
AACATGTG | 0.0694
CATAGCAC | -0.0173
CTAAACAG | -0.0999
AACCCGCG | 0.127
CTAAAGAG | -0.0254
CTAGACGC | -0.232
GAATCATA | 0.00846
AAAAGTGC | 0.0506
CATCACTA | 0.0677
GTCATAAC | 0.114
CCGGTTTA | 0.0607
AGGCCAGA | -0.0204
CCACCGGG | -0.321
CATTTAAA | 0.227
TTACTGAA | 0.173
GTACACGA | 0.28
CCGTATGA | 0.0752
ATAGATAC | 0.149
CGCGCTGA | -0.131

Sequence | PBM E-score
AGCAGTCC | -0.161
GACATTCA | 0.449
GACAAATC | 0.473
CTAAGACA | 0.302
CCGGTTTC | 0.0262
GAAAAAAA | 0.112
AGGCCCTG | -0.187
CAAAAGGG | 0.03
TCTGCTCA | -0.0709
GAAAAGAC | 0.171
CGCCTTAC | -0.0811
GAAATGCA | 0.195
GCGCTGCC | -0.316
CAATCGAG | -0.14
CATTCCCC | -0.022
ACCATGTC | 0.218
CGGTTTTA | 0.0469
CTGCTATA | 0.157
GCGTGACA | 0.203
CCTAAGCA | -0.105
CGCTGGAA | -0.188
GGAAGTAA | -0.0103

From the supplement of paper PMC3334620
